The full ranking holds about 18,000 sequences; the median of “TetR repression strength (sort-seq, GFP reporter)” is about 0.23, and the highest 2% start at about 0.68. The list shows a part of the results.

Chain of UniProt P04483 (P04483 whole entry): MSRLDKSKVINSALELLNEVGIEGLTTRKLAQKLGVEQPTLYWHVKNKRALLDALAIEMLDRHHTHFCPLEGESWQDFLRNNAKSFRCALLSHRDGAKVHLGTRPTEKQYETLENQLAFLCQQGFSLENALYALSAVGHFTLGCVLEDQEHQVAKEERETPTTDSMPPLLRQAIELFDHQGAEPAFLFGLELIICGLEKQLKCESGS

For this assay, the target named is TetR (class B, Tn10) (UniProt P04483). The assay can be described thus: TetR repression strength (sort-seq, GFP reporter) (relative to tetO2 = 1); higher = stronger repression. The following applies: E. coli. The essentials:
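Repression strength is the top bin index plus one minus the read-weighted mean bin, relative to the unaltered operator's value. A low-copy library in E. coli SIG10-MAX randomized eight operator positions between a constitutive promoter and sfGFP, with TetR expressed constitutively; cells grew 5 h at 37 °C in LB with 50 µg/mL chloramphenicol and 10^6 were FACS-sorted into 13 bins that were each Illumina-sequenced. Three independent transformations were averaged, keeping only members with ≥30 reads in all replicates and CV ≤0.5.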
For the sequence TCCCCTGTAGTGACAGAGA, the TetR repression strength was found to be 0.194.

TCCCTCCAAGTGTTCGAGA showed a TetR repression strength of 0.392.

The sequence TCCCTGACAGTTATCGAGA gave a TetR repression strength of 0.253.

The sequence TCCCGACCAGTACTAGAGA gave a TetR repression strength of 0.283.

In turn, TCCCCGGGAGTCGGCGAGA displayed a TetR repression strength of 0.171.

TCCCTGAAAGTGGTCGAGA showed a TetR repression strength of 0.285.

TCCCACAGAGTAAGAGAGA yielded a TetR repression strength of 0.488.

Sequence TCCCCTCCAGTCGATGAGA registered a TetR repression strength of 0.44.

Consider TCCCGTCTAGTCTCTGAGA, for which the TetR repression strength amounted to 0.295.

In turn, TCCCGCTAAGTGATTGAGA gave a TetR repression strength of 0.473.

As for TCCCAGTCAGTTCAGGAGA, the TetR repression strength was 0.096.

For the sequence TCCCGTCGAGTGAACGAGA, the TetR repression strength was determined as 0.242.

With TCCCGTCAAGTGCTTGAGA, the TetR repression strength worked out at 0.848.

On to TCCCTTGGAGTGATAGAGA, for which the TetR repression strength came to 0.384.

For TCCCTTGCAGTAGTCGAGA, the TetR repression strength was 0.214.

In turn, TCCCGAGCAGTCGCGGAGA returned a TetR repression strength of 0.156.

For TCCCATGGAGTGCGTGAGA, the TetR repression strength was determined as 0.262.

With TCCCTCACAGTGGACGAGA, the TetR repression strength is 0.155.

Take TCCCAAACAGTGTGGGAGA: the TetR repression strength amounted to 0.268.

As for TCCCGTCCAGTCCCCGAGA, the TetR repression strength amounted to 0.327.

On to TCCCGGAAAGTGTAGGAGA, for which the TetR repression strength amounted to 0.289.

The sequence TCCCTATGAGTTGGAGAGA returned a TetR repression strength of 0.241.

For TCCCTTCTAGTCTTTGAGA, the TetR repression strength worked out at 0.693.

Sequence TCCCATGAAGTCATGGAGA had a TetR repression strength of 0.25.

As to TCCCATAGAGTTGTGGAGA, the TetR repression strength stood at 0.184.

With TCCCGTGCAGTCCTGGAGA, the TetR repression strength was determined as 0.092.

On to TCCCACGGAGTAAACGAGA, for which the TetR repression strength amounted to 0.288.

The sequence TCCCAAGGAGTGGGGGAGA displayed a TetR repression strength of 0.345.

TCCCATCTAGTGATCGAGA displayed a TetR repression strength of 0.412.

TCCCCAGCAGTGGGTGAGA: the TetR repression strength amounted to 0.118.

Sequence TCCCTGCGAGTGGATGAGA registered a TetR repression strength of 0.397.

TCCCCGGTAGTCTAGGAGA: the TetR repression strength came out at 0.227.

The sequence TCCCTTTAAGTCGAAGAGA showed a TetR repression strength of 0.123.

TCCCTGCAAGTCAACGAGA: the TetR repression strength was 0.207.

As for TCCCTATTAGTGCGAGAGA, the TetR repression strength came to 0.198.

With TCCCGATCAGTTCTGGAGA, the TetR repression strength worked out at 0.36.

In turn, TCCCCGGGAGTCTCTGAGA had a TetR repression strength of 0.0671.

TCCCATGGAGTAGCAGAGA: the TetR repression strength stood at 0.386.

For the sequence TCCCAGTAAGTCGCAGAGA, the TetR repression strength worked out at 0.404.

The sequence TCCCTAATAGTCCTCGAGA returned a TetR repression strength of 0.385.

Regarding TCCCAGGGAGTCTACGAGA, the TetR repression strength is 0.095.

In turn, TCCCGCTAAGTACGAGAGA returned a TetR repression strength of 0.156.

Consider TCCCAGGAAGTTCGGGAGA, for which the TetR repression strength stood at 0.45.

TCCCGGGTAGTTCTAGAGA yielded a TetR repression strength of 0.672.

TCCCTCTTAGTGTTGGAGA gave a TetR repression strength of 0.224.

The sequence TCCCTTCAAGTAACGGAGA returned a TetR repression strength of 0.352.

The sequence TCCCTCACAGTTGGCGAGA gave a TetR repression strength of 0.207.

Take TCCCTGTGAGTCGAGGAGA: the TetR repression strength was 0.141.

In turn, TCCCAAGAAGTAGTTGAGA had a TetR repression strength of 0.207.

For the sequence TCCCGACCAGTGTACGAGA, the TetR repression strength stood at 0.178.

TCCCCTCAAGTCAAGGAGA gave a TetR repression strength of 0.305.

The sequence TCCCATCCAGTAAACGAGA came in with a TetR repression strength of 0.547.

The sequence TCCCTGGCAGTGATTGAGA had a TetR repression strength of 0.47.

TCCCAGTCAGTAACCGAGA registered a TetR repression strength of 0.411.

Regarding TCCCTGCCAGTACACGAGA, the TetR repression strength came to 0.217.

As to TCCCATCTAGTAGTGGAGA, the TetR repression strength turned out to be 0.0175.

In turn, TCCCCTGGAGTATTGGAGA displayed a TetR repression strength of 0.289.

Sequence TCCCTATTAGTGATAGAGA showed a TetR repression strength of 0.878.

As for TCCCCATGAGTGCTTGAGA, the TetR repression strength was 0.341.

For TCCCCATGAGTGGTAGAGA, the TetR repression strength worked out at 0.211.

As to TCCCAAACAGTTTAAGAGA, the TetR repression strength was 0.619.

The sequence TCCCCGTTAGTCAGTGAGA displayed a TetR repression strength of 0.186.

TCCCCTCGAGTGAGGGAGA yielded a TetR repression strength of 0.26.

The sequence TCCCCCGGAGTTGTGGAGA registered a TetR repression strength of 0.149.

In the case of TCCCCTTGAGTAGGAGAGA, the TetR repression strength is 0.415.

TCCCATAGAGTGTTAGAGA yielded a TetR repression strength of 0.228.

Sequence TCCCACTTAGTGTAAGAGA showed a TetR repression strength of 0.351.

Sequence TCCCAACTAGTCGAAGAGA returned a TetR repression strength of 0.267.

The sequence TCCCATTAAGTGGGTGAGA had a TetR repression strength of 0.178.

As to TCCCGATGAGTTTCAGAGA, the TetR repression strength stood at 0.207.

For TCCCGCCAAGTACGAGAGA, the TetR repression strength turned out to be 0.207.

In turn, TCCCGTCGAGTGGGAGAGA came in with a TetR repression strength of 0.494.

TCCCTGACAGTGTGGGAGA came in with a TetR repression strength of 0.22.

TCCCCGGTAGTCGTGGAGA returned a TetR repression strength of 0.207.

Sequence TCCCAGGGAGTACGCGAGA gave a TetR repression strength of 0.352.

Sequence TCCCGGCGAGTACAAGAGA showed a TetR repression strength of 0.358.

Take TCCCTAGGAGTGCTGGAGA: the TetR repression strength was 0.382.

TCCCTCTTAGTAGGGGAGA registered a TetR repression strength of 0.142.

As to TCCCTACTAGTGAAGGAGA, the TetR repression strength is 0.242.

TCCCTGGGAGTTGAGGAGA: the TetR repression strength was determined as 0.18.

TCCCACCAAGTAGGAGAGA gave a TetR repression strength of 0.285.

TCCCTTAAAGTTTAGGAGA yielded a TetR repression strength of 0.12.

With TCCCGACCAGTGGCGGAGA, the TetR repression strength stood at 0.195.

TCCCGCTCAGTCGTTGAGA showed a TetR repression strength of 0.48.

TCCCTAGCAGTGGGCGAGA came in with a TetR repression strength of 0.213.

With TCCCTCCGAGTGGATGAGA, the TetR repression strength worked out at 0.142.

TCCCGGCCAGTGCCGGAGA showed a TetR repression strength of 0.246.

On to TCCCCTTTAGTGGGCGAGA, for which the TetR repression strength worked out at 0.115.

For TCCCGCATAGTTGAGGAGA, the TetR repression strength turned out to be 0.199.

TCCCCACCAGTATCAGAGA: the TetR repression strength worked out at 0.697.

TCCCGGAGAGTTGTGGAGA showed a TetR repression strength of 0.42.

For the sequence TCCCTGCAAGTGCCGGAGA, the TetR repression strength worked out at 0.0686.

TCCCTGACAGTGAGAGAGA yielded a TetR repression strength of 0.216.

TCCCGTAGAGTCCGCGAGA returned a TetR repression strength of 0.173.

In turn, TCCCCGTAAGTTAACGAGA showed a TetR repression strength of 0.379.

As to TCCCATAGAGTCCAGGAGA, the TetR repression strength was 0.232.

The sequence TCCCTGTTAGTGACGGAGA returned a TetR repression strength of 0.268.

TCCCCAACAGTTTCAGAGA had a TetR repression strength of 0.338.

On to TCCCAACCAGTCTCAGAGA, for which the TetR repression strength was 0.431.

As for TCCCTCGGAGTGGCGGAGA, the TetR repression strength came to 0.398.

For the sequence TCCCGACGAGTTTTAGAGA, the TetR repression strength was found to be 0.281.

TCCCGGCTAGTAAGAGAGA returned a TetR repression strength of 0.0973.

The values are drawn from a collection of fitness landscapes (doi:10.1038/s41467-024-54723-y).
